# Assay results published in the supplement of paper PMC11369174, “Proteome-scale characterisation of motif-based interactome rewiring by disease mutations” (Molecular Systems Biology, 2024).
# This is one part of the list. Single values of this set are uncertain.
# T1: CSK21_Pkinase__P68400_1_335
# T1 chain: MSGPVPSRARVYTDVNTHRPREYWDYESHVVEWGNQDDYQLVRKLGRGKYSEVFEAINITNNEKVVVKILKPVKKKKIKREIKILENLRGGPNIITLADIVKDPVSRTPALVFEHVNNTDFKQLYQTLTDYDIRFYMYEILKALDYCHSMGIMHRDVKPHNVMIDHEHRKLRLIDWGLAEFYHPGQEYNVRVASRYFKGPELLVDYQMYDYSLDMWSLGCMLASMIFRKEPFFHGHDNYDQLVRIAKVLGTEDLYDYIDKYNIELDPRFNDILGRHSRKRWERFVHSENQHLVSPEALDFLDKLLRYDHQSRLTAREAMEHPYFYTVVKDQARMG
# T2: EPHA3_Pkinase__P29320_606_947
# T2 chain: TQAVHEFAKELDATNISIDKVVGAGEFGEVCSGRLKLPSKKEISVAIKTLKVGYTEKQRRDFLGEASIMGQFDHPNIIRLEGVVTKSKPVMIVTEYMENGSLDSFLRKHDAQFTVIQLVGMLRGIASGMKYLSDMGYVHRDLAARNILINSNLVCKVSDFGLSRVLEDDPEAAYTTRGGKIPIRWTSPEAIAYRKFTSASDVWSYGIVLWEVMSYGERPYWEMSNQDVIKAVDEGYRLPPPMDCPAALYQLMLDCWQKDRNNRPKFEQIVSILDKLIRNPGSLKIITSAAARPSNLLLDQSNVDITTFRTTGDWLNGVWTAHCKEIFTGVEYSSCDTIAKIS
# T3: CSKP_Pkinase__O14936_1_340
# T3 chain: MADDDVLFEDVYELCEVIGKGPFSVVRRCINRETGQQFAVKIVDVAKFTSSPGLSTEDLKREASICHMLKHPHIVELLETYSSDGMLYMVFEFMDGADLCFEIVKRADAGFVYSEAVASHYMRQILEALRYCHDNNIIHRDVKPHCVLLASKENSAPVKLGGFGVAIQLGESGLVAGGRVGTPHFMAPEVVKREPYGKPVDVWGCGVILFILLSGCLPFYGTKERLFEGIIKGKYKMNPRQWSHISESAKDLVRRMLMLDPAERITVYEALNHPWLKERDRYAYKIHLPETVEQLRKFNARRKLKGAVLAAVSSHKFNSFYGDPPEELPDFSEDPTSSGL
# T4: G3BP2_NTF2_1_Q9UN86_1_139
# T4 chain: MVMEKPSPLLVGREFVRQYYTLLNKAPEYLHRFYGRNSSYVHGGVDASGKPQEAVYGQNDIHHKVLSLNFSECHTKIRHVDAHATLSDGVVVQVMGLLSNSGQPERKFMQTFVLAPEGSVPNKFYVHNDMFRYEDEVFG
# T5: VCL_Vinc__P18206_1_258
# T5 chain: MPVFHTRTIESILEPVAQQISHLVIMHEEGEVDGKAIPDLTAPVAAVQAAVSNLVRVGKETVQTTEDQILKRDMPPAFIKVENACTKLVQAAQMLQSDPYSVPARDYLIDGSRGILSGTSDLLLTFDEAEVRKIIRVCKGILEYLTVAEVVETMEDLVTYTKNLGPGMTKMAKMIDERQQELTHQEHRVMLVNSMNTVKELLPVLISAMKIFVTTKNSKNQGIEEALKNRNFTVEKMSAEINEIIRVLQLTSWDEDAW
# T6: PEX14_Pex14__O75381_16_84
# T6 chain: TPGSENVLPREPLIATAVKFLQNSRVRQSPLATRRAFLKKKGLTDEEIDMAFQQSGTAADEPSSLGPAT
# What was measured:
# Assay in all cases: mutation enrichment score (mutant vs wild-type peptide binding to bait); baits are purified protein domains named by gene / domain / UniProt id / residues; peptides come from disordered regions of human proteins; higher = mutation enhances binding relative to wild type
# [1] = biological target: T1, CSK21_Pkinase__P68400_1_335; conditions: number of wild-type / mutant comparisons summed (bounds the score): 6; paper call: no_effect; wild-type window: …
# [2] = biological target: T2, EPHA3_Pkinase__P29320_606_947; conditions: number of wild-type / mutant comparisons summed (bounds the score): 6; paper call: no_effect; wild-type window: …
# [3] = biological target: GABARAPL1_ATG8__Q9H0R8_2_115; conditions: number of wild-type / mutant comparisons summed (bounds the score): 12; paper call: no_effect; wild-type window: …
# [4] = biological target: T3, CSKP_Pkinase__O14936_1_340; conditions: number of wild-type / mutant comparisons summed (bounds the score): 6, wild-type window: …
# [5] = biological target: T4, G3BP2_NTF2_1_Q9UN86_1_139; conditions: number of wild-type / mutant comparisons summed (bounds the score): 6; paper call: no_effect; wild-type window: …
# [6] = biological target: T5, VCL_Vinc__P18206_1_258; conditions: number of wild-type / mutant comparisons summed (bounds the score): 6; paper call: no_effect; wild-type window: …
# [7] = biological target: T6, PEX14_Pex14__O75381_16_84; conditions: number of wild-type / mutant comparisons summed (bounds the score): 12; paper call: no_effect; wild-type window: …
binder,measurement,setting,value
PEDDRPEAIPELHMVPAAWRVLEMPAPADDSSSSLGDVSPE [G2971V G2971V],mutation enrichment score,[1],2
same,mutation enrichment score,[2],3
QFETADDEDFIWVQENIDEIVLQLQKLTGQQGEEPSLVSPS [I3558V I3558V],mutation enrichment score,[1],1
same,mutation enrichment score,[3],0
MSDSWVPNSASGQDPGGRRRLWAE [S4L S4L],mutation enrichment score,[4]; paper call: enhanced,6
WAAFHPTMPLIVSGADDRQVNIWRMNESKAWEVDTCRGHYN [K230N K230N],mutation enrichment score,[4]; paper call: enhanced,6
HVVVFMLGTIPFPEGMGGSVCFSYPDSNGMPVWQLLGFVTN [Y55C Y55C],mutation enrichment score,[4]; paper call: enhanced,6
same,mutation enrichment score,[5],-3
ADGAALEHSEEDGSIYEMADYPDIWVRSRPCARDAHRKEIC [D1216Y D1216Y],mutation enrichment score,[4]; paper call: enhanced,6
AVPKYYQSPWEQAISNDPELSEALYPKLFKPEGKAELPDYR [L163S L163S],mutation enrichment score,[4]; paper call: enhanced,6
same,mutation enrichment score,[6],-3
FYCDEEENFYQQQQQSELQPLAPSEDIWKKFELLPTPPLSP [P43L P43L],mutation enrichment score,[4]; paper call: no_effect,2
PPAPSEDIWKKFELLPTPPLFPSRRSGLCSPSYVAVTPFSL [S62F S62F],mutation enrichment score,[4]; paper call: no_effect,-1.7
SELQPPAPSEDIWKKFELLPAPPLSPSRRSGLCSPSYVAVT [T58A T58A],mutation enrichment score,[4]; paper call: no_effect,-4
SELQPPAPSEDIWKKFELLPIPPLSPSRRSGLCSPSYVAVT [T58I T58I],mutation enrichment score,[4]; paper call: no_effect,-4
SELQPPAPSEDIWKKFELLPSPPLSPSRRSGLCSPSYVAVT [T58S T58S],mutation enrichment score,[4]; paper call: no_effect,3.8
GATHSPPTDLVWKAQNTWGCRNSLRTALINSTGEEVAMRKL [G523R G523R],mutation enrichment score,[4]; paper call: no_effect,2.2
VTIWAAGAGATHSPPTDLVWEAQNTWGCGNSLRTALINSTG [K515E K515E],mutation enrichment score,[4]; paper call: no_effect,-1
VVTIWAAGAGATHSPPTDLVRKAQNTWGCGNSLRTALINST [W514R W514R],mutation enrichment score,[4]; paper call: no_effect,-2
AGAGATHSPPTDLVWKAQNTRGCGNSLRTALINSTGEEVAM [W520R W520R],mutation enrichment score,[4]; paper call: no_effect,0.22
AGAGATHSPPTDLVWKAQNTSGCGNSLRTALINSTGEEVAM [W520S W520S],mutation enrichment score,[4]; paper call: no_effect,-2
LDPYEQWSDQEIWKVADEVGPRSVIEQFPGKLDFVLVDGGC [L1324P L1324P],mutation enrichment score,[4]; paper call: no_effect,-3.5
YRKHCLEQGKQQLMPQEAGLVEEFLLTDNSAIWQTVEELDY [A676V A676V],mutation enrichment score,[4]; paper call: no_effect,4
same,mutation enrichment score,[7],4
NHVVVFMLGTIPFPEGMGGSLYFSYPDSNGMPVWQLLGFVT [V54L V54L],mutation enrichment score,[4]; paper call: no_effect,5
same,mutation enrichment score,[5],-1.3
TWNPPRDDGGSKITNYVVERQATDSEVWHKLSSTVKDTNFK [R14750Q R14750Q],mutation enrichment score,[4]; paper call: no_effect,3.1
TTIEGAEPISVVWFKDKGEIIRESDNIWISYSENIATLQFS [V8460I V8460I],mutation enrichment score,[4]; paper call: no_effect,3.5
